Lines with a small IC50 respond at low doses; a fit beyond the top or the lowest dose is shown as a bound at that dose. AUC, from the same fit, is the share of area under the viability curve across the 256-fold dose range; values near 1 show little effect. For some of these results: A top dose marked as inferred was derived from the fitted curves, not read from the paper.
How the values were obtained:
Assay in all cases: Viability of human cancer cell lines after 72 h of drug (GDSC screen)
Bosutinib = compound: COc1cc(Nc2c(C#N)cnc3cc(OCCCN4CCN(C)CC4)c(OC)cc23)c(Cl)cc1Cl [Bosutinib]; conditions: top dose 2 µM
Procedure: (§1)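 Human cancer cell lines in 384-well plates, medium with 10% serum, drug for 72 h over a 256-fold dose range (nine 2-fold or five 4-fold steps up to the top dose). Adherent lines were fixed and stained with the nucleic acid dye Syto60, suspension lines read with resazurin; signal relative to control wells, capped at 0 and 100%. One two-parameter sigmoid per drug and line, fitted in a mixed model over all curves with the slope shared within a line.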

Mitomycin C = compound: CO[C@@]12[C@H](COC(N)=O)C3=C(C(=O)C(C)=C(N)C3=O)N1C[C@@H]1N[C@@H]12 [Mitomycin C]; conditions: top dose 16 µM
Procedure: as §1

IOX2 = compound: O=C(O)CNC(=O)c1c(O)c2ccccc2n(Cc2ccccc2)c1=O [IOX2]; conditions: top dose 0.1 µM; top dose inferred
Procedure: as §1

Midostaurin = compound: CO[C@@H]1[C@H](N(C)C(=O)c2ccccc2)C[C@H]2O[C@]1(C)n1c3ccccc3c3c4c(c5c6ccccc6n2c5c31)C(=O)NC4 [Midostaurin]; conditions: top dose 0.512 µM; top dose inferred
Procedure: as §1

NVP-BHG712 = compound: Cc1ccc(C(=O)Nc2cccc(C(F)(F)F)c2)cc1Nc1nc(-c2cccnc2)nc2c1cnn2C [NVP-BHG712]; conditions: top dose 10.24 µM; top dose inferred
Procedure: as §1

Cell Line | AUC (Bosutinib) | IC50 (Bosutinib) [nM] | AUC (Mitomycin C) | IC50 (Mitomycin C) [nM] | AUC (IOX2) | IC50 (IOX2) [nM] | AUC (Midostaurin) | IC50 (Midostaurin) [nM] | AUC (NVP-BHG712) | IC50 (NVP-BHG712) [nM]
HDQ-P1 (breast, adherent) | 0.905 | > 2000 | 0.58 | 1720 | 0.983 | > 100 | 0.918 | > 512 | 0.985 | > 10200
HEC-1 (endometrium, adherent) | 0.96 | > 2000 | 0.445 | 713 | 0.984 | > 100 | 0.957 | > 512 | 0.975 | > 10200
HGC-27 (stomach, adherent) | 0.919 | > 2000 | 0.087 | < 62.5 | 0.99 | > 100 | 0.817 | 233 | 0.889 | 8580
HH (T-cell leukaemia, suspension) | 0.97 | > 2000 | 0.501 | 1010 | 0.971 | > 100 | 0.942 | > 512 | 0.72 | 3350
HMV-II (melanoma, adherent) | 0.976 | > 2000 | 0.225 | 129 | 0.937 | > 100 | 0.88 | > 512 | 0.806 | 6660
HN (head and neck, adherent) | 0.838 | 1230 | 0.467 | 818 | 0.972 | > 100 | 0.985 | > 512 | 0.988 | > 10200
HO-1-u-1 (head and neck, adherent) | 0.917 | > 2000 | 0.261 | 214 | 0.987 | > 100 | 0.955 | > 512 | 0.976 | > 10200
HOS (osteosarcoma, adherent) | 0.937 | > 2000 | 0.221 | 184 | 0.991 | > 100 | 0.886 | 404 | 0.992 | > 10200
HSC-4 (head and neck, adherent) | 0.562 | 195 | 0.393 | 462 | 0.847 | > 100 | 0.959 | > 512 | 0.963 | > 10200
HT55 (large intestine, adherent) | 0.986 | > 2000 | 0.667 | 2900 | 0.989 | > 100 | 0.951 | > 512 | 0.959 | > 10200
HT-3 (cervix, adherent) | 0.981 | > 2000 | 0.095 | < 62.5 | 0.986 | > 100 | 0.955 | > 512 | 0.955 | > 10200
HT-115 (large intestine, adherent) | 0.991 | > 2000 | 0.841 | 9710 | 0.988 | > 100 | 0.869 | 401 | 0.983 | > 10200
HT-1197 (bladder, adherent) | 0.971 | > 2000 | 0.596 | 1930 | 0.971 | > 100 | 0.979 | > 512 | 0.981 | > 10200
HT-1376 (bladder, adherent) | 0.834 |  | 0.481 | 877 | 0.984 | > 100 | 0.925 | > 512 | 0.985 | > 10200
Hep 3B2_1-7 (liver, adherent) | 0.945 | > 2000 | 0.463 | 794 | 0.985 | > 100 | 0.947 | > 512 | 0.819 | 5840
Hs633T (fibrosarcoma, adherent) | 0.844 | 1070 | 0.233 | 202 | 0.99 | > 100 | 0.561 | 45.5 | 0.875 | 7020
Hs683 (glioma, adherent) | 0.975 | > 2000 | 0.328 | 330 | 0.966 | > 100 | 0.756 | 177 | 0.916 | > 10200
Hs766T (pancreas, adherent) | 0.861 | > 2000 | 0.638 | 2730 | 0.973 | > 100 | 0.88 | > 512 | 0.984 | > 10200
Hs939-T (melanoma, adherent) | 0.971 | > 2000 | 0.479 | 870 | 0.965 | > 100 | 0.964 | > 512 | 0.912 | > 10200
Hs-578-T (breast, adherent) | 0.969 | > 2000 | 0.772 | 6570 | 0.975 | > 100 | 0.946 | > 512 | 0.987 | > 10200
HuCCT1 (biliary tract, adherent) | 0.904 | > 2000 | 0.481 | 883 | 0.982 | > 100 | 0.765 | 208 | 0.954 | > 10200
HuO9 (osteosarcoma, adherent) | 0.945 | > 2000 | 0.588 | 1800 | 0.974 | > 100 | 0.862 | > 512 | 0.925 | > 10200
HuO-3N1 (osteosarcoma, adherent) | 0.94 | > 2000 | 0.792 | 9930 | 0.98 | > 100 | 0.702 | 144 | 0.979 | > 10200
HuP-T3 (pancreas, adherent) | 0.866 | > 2000 | 0.447 | 694 | 0.922 | > 100 | 0.935 | > 512 | 0.929 | > 10200
HuP-T4 (pancreas, adherent) | 0.9 | > 2000 | 0.214 | 136 | 0.916 | > 100 | 0.977 | > 512 | 0.755 | 3680
IA-LM (large cell lung carcinoma, adherent) | 0.982 | > 2000 | 0.207 | 121 | 0.974 | > 100 | 0.948 | > 512 | 0.983 | > 10200

Source: the supplement of paper PMC4967469
